In all, about 39,000 compounds went through this assay and about 220 (0.56%) showed activity. This is one part of the list.
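Note: static incubation at 37 °C against the wild-type strain, values averaged over two biological replicates.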

The subject of this test is Escherichia coli K-12 BW25113. In words: relative growth (OD600 normalised to plate interquartile mean) (fraction); higher = less growth inhibition, active = 0.2 or less. Particulars: 50 µM; LB; incubation time: overnight (16-24 h).
For the molecule `Cc1noc(C)c1S(=O)(=O)Nc1ccc2c(c1)CC(=O)N([C@H](C)CO)C[C@@H](C)[C@H](CN(C)C(=O)NC1CCCCC1)O2`, the relative growth was inactive: 1.01.

Consider `CO[C@H]1CN(C)C(=O)c2ccc(NC(=O)Nc3cccc(F)c3)cc2OC[C@H](C)N(C(=O)Nc2c(C)noc2C)C[C@H]1C`, for which the relative growth was inactive: 1.

Regarding `CC(C)CC#Cc1ccc2c(c1)O[C@@H](CN(C)S(=O)(=O)c1ccc(F)cc1)[C@@H](C)CN([C@@H](C)CO)S2(=O)=O`, the relative growth was inactive: 1.07.

Take `C[C@@H]1CN([C@@H](C)CO)C(=O)c2cccc(NC(=O)C3CC3)c2O[C@H]1CN(C)Cc1ccc(Oc2ccccc2)cc1`: the relative growth is inactive: 1.04.

On to `C[C@@H]1CN([C@H](C)CO)C(=O)Cc2cc(NC(=O)CCN3CCOCC3)ccc2O[C@@H]1CN(C)Cc1ccc2c(c1)OCO2`, for which the relative growth was inactive: 1.

`C[C@H](CO)N1C[C@H](C)[C@@H](CN(C)C(=O)Nc2ccc3c(c2)OCO3)Oc2ccc(NS(=O)(=O)c3cn(C)cn3)cc2CC1=O`: the relative growth was inactive: 0.988.

With `COC(=O)C[C@H]1CC[C@H]2[C@@H](COC[C@@H](O)CN2S(=O)(=O)c2ccc(F)cc2)O1`, the relative growth is inactive: 0.99.

`C[C@H]1CCCCO[C@H](CN(C)C(=O)Nc2ccc(C(F)(F)F)cc2)[C@@H](C)CN([C@@H](C)CO)C(=O)c2cc(NC(=O)Nc3ccccc3)ccc2O1`: the relative growth was inactive: 1.01.

With `COc1ccc(N(C(=O)CCl)[C@@H](C(=O)NCCc2ccccc2)c2ccc(Cl)s2)cc1Cl`, the relative growth is inactive: 1.

On to `COc1cccc(C(=O)Nc2ccc3c(c2)C(=O)N(C)[C@@H]2CC[C@H](CC(=O)NCCCN4CCOCC4)O[C@@H]2CO3)c1`, for which the relative growth is inactive: 1.04.

As for `COCC#Cc1ccc2c(c1)O[C@@H](CN(C)C(=O)C1CCCCC1)[C@H](C)CN([C@@H](C)CO)S2(=O)=O`, the relative growth is inactive: 1.04.

Turning to `CSC1=NN(C)c2cnn(C)c(=O)c2S1`, the relative growth is inactive: 1.02.

Regarding `CCS(=O)(=O)N1C[C@]2(CCN(CC2)S(=O)(=O)c2cn(cn2)C)c2c([nH]c3cc(ccc23)OC)[C@H]1CO`, the relative growth was inactive: 0.988.

Turning to `CCCNC(=O)N[C@H]1CC[C@@H](CC(=O)N2CCN(C)CC2)O[C@H]1CO`, the relative growth was inactive: 0.986.

In the case of `C[C@H]1CCCCO[C@H](CN(C)S(=O)(=O)c2ccccc2)[C@@H](C)CN([C@@H](C)CO)C(=O)c2cc(NS(=O)(=O)c3ccc(Cl)cc3)ccc2O1`, the relative growth was inactive: 1.02.

Regarding `CC(C)CC#Cc1ccc2c(c1)O[C@@H](CN(C)C(=O)c1ccccn1)[C@@H](C)CN([C@H](C)CO)S2(=O)=O`, the relative growth is inactive: 1.

For `O=c1[nH]cccc1F`, the relative growth was inactive: 0.964.

In the case of `COc1ccc(NC(=O)N(C)C[C@H]2Oc3cc(C#CCN(C)C)ccc3S(=O)(=O)N([C@@H](C)CO)C[C@H]2C)cc1`, the relative growth is inactive: 0.997.

As for `Cc1ccc(S(=O)(=O)Nc2ccc3c(c2)C(=O)N([C@@H](C)CO)C[C@H](C)[C@@H](CN(C)CC2CC2)O3)cc1`, the relative growth was inactive: 1.03.

Take `COC(=O)[C@H]1[C@H](CO)[C@H]2Cn3c(ccc(-c4cncnc4)c3=O)[C@H]2N1C(=O)C1CCC1`: the relative growth was inactive: 0.99.

Take `Cc1cc(C(=O)Nc2cccc3c2O[C@@H](CN(C)S(=O)(=O)c2cn(C)cn2)[C@H](C)CN([C@@H](C)CO)C3=O)n(C)n1`: the relative growth is inactive: 0.999.

Consider `Cc1noc(C)c1S(=O)(=O)Nc1ccc2c(c1)CC(=O)N([C@H](C)CO)C[C@H](C)[C@@H](CN(C)C(=O)Nc1ccccc1)O2`, for which the relative growth is inactive: 0.989.

As to `COc1ccc(NC(=O)Nc2ccc3c(c2)C(=O)N([C@@H](C)CO)C[C@@H](C)[C@H](CN(C)Cc2ccc4c(c2)OCO4)OCCCC[C@@H](C)O3)cc1`, the relative growth was inactive: 1.01.

With `COCC#Cc1ccc([C@H]2[C@H]3CN(C(=O)c4cccnc4)CC(=O)N3[C@H]2CO)cc1`, the relative growth was inactive: 0.998.

With `O=C(O)C[C@](O)(CC(=O)[O][Bi]1[O]C(=O)C[C@@](O)(CC(=O)O)C(=O)[O]1)C(=O)O`, the relative growth is inactive: 0.881.

For the molecule `CC(C)NC(=O)Nc1ccc2c(c1)C(=O)N([C@@H](C)CO)C[C@@H](C)[C@@H](CN(C)S(=O)(=O)c1cn(C)cn1)OCCCC[C@@H](C)O2`, the relative growth was inactive: 0.986.

Take `Cc1ccc(S(=O)(=O)N(C)C[C@H]2Oc3c(NC(=O)Nc4ccc(C(F)(F)F)cc4)cccc3C(=O)N([C@H](C)CO)C[C@@H]2C)cc1`: the relative growth is inactive: 0.864.

With `CCNC(=O)C[C@@H]1C=C[C@@H](NC(=O)C2CCOCC2)[C@H](CO)O1`, the relative growth is inactive: 0.988.

Consider `C[C@@H]1CN(C)S(=O)(=O)CCO1`, for which the relative growth is inactive: 1.01.

For the molecule `C[C@H](CO)N1C[C@H](C)[C@H](CN(C)Cc2ccccc2)Oc2c(NC(=O)Nc3ccc(C(F)(F)F)cc3)cccc2C1=O`, the relative growth was inactive: 1.05.

As for `Cc1noc(C)c1NC(=O)Nc1ccc2c(c1)C(=O)N([C@@H](C)CO)C[C@H](C)[C@H](CN(C)C(=O)Nc1ccc(C(F)(F)F)cc1)O2`, the relative growth is inactive: 0.921.

For `C[C@@H]1CN([C@H](C)CO)C(=O)CCCn2nncc2CO[C@H]1CN(C)C(=O)c1ccc(N2CCN(C)CC2)cc1`, the relative growth is inactive: 0.987.

For `C[C@H](CO)N1C[C@H](C)[C@H](CN(C)C(=O)Cc2ccccc2)Oc2ncc(C#CC3(O)CCCC3)cc2C1=O`, the relative growth was inactive: 1.01.

For `O=C(C[C@H]1CC[C@H]2[C@@H](COC[C@H](O)CN2C(=O)c2ccncc2)O1)NCc1ccc(-c2ccccc2)cc1`, the relative growth was inactive: 1.01.

On to `O=C1O[C@@H](c2ccccc2)[C@@H](c2ccccc2)N2[C@@H](c3ccccc3OCCO)[C@]3(C(=O)Nc4ccc(C#CC5=CCCCC5)cc43)[C@@H](C(=O)N3CCCCCCC3)[C@H]12`, for which the relative growth is inactive: 1.03.

`C[C@H](CO)N1C[C@H](C)[C@@H](CN(C)Cc2ccc(-c3ccccc3)cc2)Oc2c(NC(=O)CCCCCC(=O)Nc3ccccc3N)cccc2C1=O`: the relative growth is inactive: 1.03.

With `C[C@@H]1CN([C@H](C)CO)C(=O)c2c(c3ccccc3n2C)-c2ccccc2CO[C@H]1CN(C)Cc1ccc(O)cc1`, the relative growth is inactive: 0.996.

In the case of `Cc1ccc(S(=O)(=O)Nc2ccc3c(c2)C(=O)N([C@@H](C)CO)C[C@@H](C)[C@H](CN(C)C(=O)Nc2cccc4ccccc24)O3)cc1`, the relative growth was inactive: 1.01.

The record behind these values is the supplement of paper PMC9446081.
